Results: ChEMBL document CHEMBL1201862, “PubChem BioAssay data set” (2004)
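Results reflect a 48-hour exposure of cells in 96-well plates to compound at five concentrations. GI50 is the concentration that inhibits growth by half.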 Activity calls are given as the source filed them. Rule as the data show it: active = GI50 up to about 1.1 µM and inactive = higher.

tested on: NCI-H322M; assay: growth of human tumour cells (NCI), 48 h

| Compound | GI50 |
| --- | --- |
| COc1ccc(/C=C2/C(=O)N(C(=O)c3ccccc3O)N=C2C)cc1 | inactive: 1.18 µM |
| N#CC1=C(N)N(c2ccccc2)C(c2ccco2)C1(C#N)C#N (stereo unspecified) | inactive: 19.5 µM |
| Cn1c(-c2ccccc2)cc(-c2ccsc2)c1-c1ccsc1 | inactive: > 100 µM |
| C(=C\c1ccccc1)/Cn1nc(-c2ccccc2)nc1-c1cnccn1 | inactive: > 100 µM |
| O=c1[nH]n(Cc2ccccc2CCl)c2ccc([N+](=O)[O-])cc12 | inactive: 43.7 µM |
| CC(=O)N1N(c2ccc([N+](=O)[O-])cc2)C(=O)C1(C)C | inactive: 29.4 µM |
| COc1ccc(NC(=O)/C(Cc2cc(=O)oc3cc(O)ccc23)=N\NC(C)(C)C)c(OC)c1 | inactive: > 100 µM |
| CCOC(=O)C1Cc2c(cc3c4c(cccc24)N(C(C)=O)C3)N(C)C1 (stereo unspecified) | inactive: > 100 µM |
| Cc1cn([C@@H]2C[C@](C)(CO)N(C)O2)c(=O)[nH]c1=O | inactive: > 100 µM |
| N=C1/C(=C/c2ccc(F)cc2)C(=O)N=C2SC=NN12 | inactive: > 100 µM |
| Cn1c2c(c3ccccc31)CCN(CCCCN1CCCCC1)C2=O | inactive: 85.3 µM |
| COc1cccc(OCC(=N/NC(=O)c2ccncc2)/N=C/c2ccncc2)c1 | inactive: > 100 µM |
| O=[N+]([O-])c1ccc(N2N=C(c3ccc(NCc4nc5ccccc5[nH]4)cc3)CC2c2ccco2)cc1 (stereo unspecified) | inactive: 30.3 µM |
| Cc1cc2c(C)nn(Cc3ccc(Cl)cc3)c2c(C#N)c1C | inactive: > 100 µM |
| CCOC(=O)c1cc2c([N+](=O)[O-])c(NC(C)=O)ccc2s1 | inactive: > 100 µM |
| COC(=O)c1cc2c3c(c1)Oc1cc(C(=O)OC)cc4c1C3c1c(cc(C(=O)OC)cc1O4)O2 | inactive: 58.5 µM |
| COC(C[C@H]1CCCC[C@]1(O)/C(=C\CO[Si](C(C)C)(C(C)C)C(C)C)Sc1ccccc1)OC | inactive: 47.8 µM |
| CNC(=S)Nc1sc2c(c1C#N)CCCC2 | inactive: > 75 µM |
| CC1OC(OC2C(OC(=O)[C@@H]3CC(C)(C)C[C@H]4C5=CC[C@@H]6[C@@]7(C)C[C@H](O)[C@H](OC8OC(CO)C(O)C(O)C8O)[C@@](C)(CO)[C@@H]7[C@H](O)C[C@@]6(C)[C@]5(C)CC[C@@]34C)OCC(O)C2O)C(O)C(O)C1O (stereo partly specified) | inactive: > 7.5 µM |
| CNS(=O)(=O)NN(C)S(=O)(=O)c1ccc(F)cc1 | inactive: > 100 µM |
| CCOC(=O)CCN1C(=O)c2c(NC(=O)C(=O)O)cccc2S1(=O)=O | inactive: > 100 µM |
| O=C(NNC(=S)NCc1ccccc1)C12CC3CC(CC(C3)C1)C2 | inactive: 56.5 µM |

| Compound | GI50 |
| --- | --- |
| Cc1[nH]c(-c2ccccc2)c(O)c1C(=O)OC1CC(C)CCC1C(C)C (stereo unspecified) | inactive: 16.6 µM |
| O=C(N/N=C/C=C/c1ccc([N+](=O)[O-])o1)c1ccc(Br)s1 | inactive: > 100 µM |
| CCCNC(C#N)c1ccc(C(C#N)NCCC)cc1 (stereo unspecified) | inactive: > 100 µM |
| CN1CCc2c1nc(-c1ccc([N+](=O)[O-])cc1)c1c2N(C)CC1 | inactive: > 100 µM |
| c1ccc2c(c1)nc1n2CNCC1 | inactive: > 100 µM |
| O=C(CC1OC(O)C(Cl)=C1Cl)c1cccnc1 (stereo unspecified) | inactive: > 100 µM |
| CC(C)(CN1CCCCC1)C(=O)/C=C/c1ccc(/C=C/C(=O)C(C)(C)CN2CCCCC2)cc1 | active: 0.986 µM |
| CCOC(=O)C1(Cc2ccccc2)Cc2cc3c(cc2C1=O)CCC3 (stereo unspecified) | inactive: > 100 µM |
| Cc1c(C(=O)/C=C/c2ccc(N(C)C)cc2)c(=O)n(-c2ccccc2)n1C | inactive: > 100 µM |
| Cc1ccnc(NC(NC(=O)c2ccccc2)(C(F)(F)F)C(F)(F)F)c1 | inactive: > 100 µM |
| CC(C)[C@H]1NC(=O)[C@H]2N=C(S[C@H]2C)[C@@H]2CCCN2C(=O)[C@H](Cc2ccccc2)NC(=O)[C@@H]2CSC(=N2)[C@@H](Cc2ccccc2)NC(=O)[C@@H]2CSC1=N2 | inactive: > 50 µM |
| C#C/C=C\CCCCCCCCCCCCCC/C=C\CCCCC#CC(O)C#CCCCC/C=C\CCCCCC/C=C/C(O)C#C (stereo unspecified) | inactive: 17.8 µM |
| CC(C)(C)OC[C@H](O)CC#N | inactive: > 100 µM |
| O=C(O)CCCC(=O)Nn1c(Cc2ccc(Cl)cc2)n[nH]c1=O | inactive: > 100 µM |
| COc1ccc(/C=N/n2cnc3c(c2=O)S/C(=C2/SC(=S)N(c4ccc(C)cc4)C2=O)N3c2ccccc2)cc1 | inactive: > 100 µM |
| C#Cc1cccc(N2C(=O)c3c(c(-c4ccccc4)c(-c4ccc(Cc5ccc(-c6c(-c7ccccc7)c7c(c(-c8ccccc8)c6-c6ccccc6)C(=O)N(c6cccc(C#C)c6)C7=O)cc5)cc4)c(-c4ccccc4)c3-c3ccccc3)C2=O)c1 | inactive: > 100 µM |
| CC(NCc1c(O)ccc2ccc(=O)oc12)C(=O)O (stereo unspecified) | inactive: > 100 µM |
| COC(=O)/C=c1\s/c(=C\C(=O)OC)c2ccccc12 | inactive: > 100 µM |
| COc1ccc(NC(=O)C(=O)C(C(=O)c2ccccc2)C2OC(=O)c3ccccc32)c([N+](=O)[O-])c1 (stereo unspecified) | inactive: > 100 µM |
| CC(C)(C)C(=O)/C=C(\OB(F)F)C(C)(C)C | inactive: > 100 µM |
| COC(=O)c1ccc(NCC2=C(Br)C(=O)C=CC2=O)cc1Cl | inactive: > 100 µM |
| N/N=C1\C(OC(=O)Nc2cccc(Cl)c2)=Nc2ccccc21 | inactive: 9.4 µM |

| Compound | GI50 |
| --- | --- |
| N=C(N)SCCN1CCCCC1 | inactive: 77.3 µM |
| CCN(CC)CCC(=O)NC1c2ccccc2Oc2c(C)cccc21 (stereo unspecified) | inactive: > 100 µM |
| N/N=C(\N)SCc1ccc(N=C=S)cc1 | inactive: > 100 µM |
| C=C1C(=O)OC2/C=C(\C)CC/C=C(/C)CC(OC(=O)/C(=C/CO)CO)C12 (stereo unspecified) | inactive: > 100 µM |
| OCCN1CCN(CCO)Cc2ccccc2OCCOc2ccccc2C1 | inactive: > 100 µM |
| COc1cc(OC)cc(N2CCC(c3c(N)nc(N)nc3Cl)CC2)c1 | inactive: > 100 µM |
| COC(=O)C(/C(=N/N)C(=O)Nc1cccc(O)c1)c1nc2ccccc2nc1O (stereo unspecified) | inactive: > 100 µM |
| O=C(/C=C/c1ccc(Cl)c(Cl)c1)C1CCC(Cl)CC1 (stereo unspecified) | inactive: 33.5 µM |
| C[C@]12CCC3[C@@H](C[C@H]4OC(=O)[C@@]35CCC(=O)C=C45)C1CCC2=O (stereo partly specified) | inactive: > 100 µM |
| CCCCCCCCCCOC(=O)NCCC | inactive: 74.6 µM |
| CN(C)c1ccc(/C=C2/SC(=S)NC2=O)cc1 | inactive: > 100 µM |
| C=CCn1c(=O)c(C(=O)Nc2nc(C34CC5CC(CC(C5)C3)C4)cs2)c(O)c2ccccc21 | inactive: 45.5 µM |
| Cc1[nH]c2ncn(/N=C/c3ccccc3O)c(=N)c2c1Cc1ccccc1 | inactive: 84.9 µM |
| Cc1cc(S(=O)(=O)Nc2nc(N)nc(N(C)C)n2)c(SCC(=O)O)cc1Cl | inactive: > 10 µM |
| COc1ccc(Cc2nc3cc(C(F)(F)F)ccc3n2CCCN(C)C)cc1 | inactive: 17.9 µM |
| C[C@]12CCC(=O)CC1CCCC2=O (stereo partly specified) | inactive: > 100 µM |
| O=C(Cc1ccccc1)N/N=C/c1ccccc1O | inactive: 18.8 µM |
| COc1nc(N)nc2nc[nH]c12 | inactive: 184 µM |
| C[C@@H](NC1CCCC[C@H]1O)c1ccccc1 (stereo partly specified) | inactive: > 100 µM |
| Cc1cccc(/C=C2\CCCc3ccccc3C2=O)c1 | inactive: 25.8 µM |
| CC1CCCC2(CC[N+](C)(CCC[N+](C)(C)C)CC2)C1 (stereo unspecified) | inactive: > 100 µM |
| Cc1cccc(-c2cc(O)c3ccc(C)nc3n2)c1 | active: 0.366 µM |
